Residue numbers refer to the chain shown, from its start.
T1: Trx-H6-RssB, wild type (E. coli, UniProt P0AEV1 1-337)
T1 sequence (looked up): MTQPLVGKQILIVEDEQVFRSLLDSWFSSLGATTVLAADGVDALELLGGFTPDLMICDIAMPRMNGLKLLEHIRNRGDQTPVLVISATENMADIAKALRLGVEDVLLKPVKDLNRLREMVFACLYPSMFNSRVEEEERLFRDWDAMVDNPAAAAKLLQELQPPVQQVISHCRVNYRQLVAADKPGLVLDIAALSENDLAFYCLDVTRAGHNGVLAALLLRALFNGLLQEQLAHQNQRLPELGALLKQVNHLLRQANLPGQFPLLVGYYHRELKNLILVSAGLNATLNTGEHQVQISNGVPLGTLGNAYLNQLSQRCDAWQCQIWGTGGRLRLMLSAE

T2: Trx-RssB D58E (E. coli, UniProt P0AEV1 1-337, D58E)
T2 construct: RssB, E. coli, full length with D58E; also called phospho-mimic mutant D58E; source: purified recombinant protein; not shown: Trx (thioredoxin), N-terminal, kept; His6, internal (between Trx and RssB, from the name Trx-H6-RssB), kept
T2 sequence (looked up): T1 sequence (looked up) with D58E

T3: Trx-RssB_(RE/AA) (E. coli, UniProt P0AEV1 1-337, RE/AA)
T3 construct: RssB, E. coli, full length; the charged residues RE central to the 116-LREM-119 motif replaced by alanine; With AcP phosphorylated at Asp58; source: purified recombinant protein; not shown: Trx (thioredoxin), N-terminal, kept; His6, internal (between Trx and RssB, from the name Trx-H6-RssB), kept
T3 sequence (looked up): T1 sequence (looked up) with R117A, E118A

T4: Trx-RssB_(R117A) (E. coli, UniProt P0AEV1 1-337, R117A)
T4 construct: RssB, E. coli, full length with R117A; With AcP phosphorylated at Asp58; Used as the Trx-RssB of the SEC-SAXS experiments; source: purified recombinant protein; not shown: Trx (thioredoxin), N-terminal, kept; His6, internal (between Trx and RssB, from the name Trx-H6-RssB), kept
T4 sequence (looked up): T1 sequence (looked up) with R117A

B1: ΔNσ^S, σ^S lacking the first 50 residues (domain or fragment)
chain: not shown
B2: σ^S (SigmaS), untagged, wild type (natural protein)
chain: not shown
notes: starvation sigma factor σS (RpoS), E. coli, wild type; theoretical MW 38 kDa as printed; The printed theoretical mass (38 kDa) fits the whole protein; also called σ^38; RpoS; source: Ub-fusion system, purified (IMAC, SEC)

Columns and labels:
Trx-H6-RssB, wild type [1] = target: T1, Trx-H6-RssB, wild type; test: cell-based or functional assay
Trx-RssB D58E = target: T2, Trx-RssB D58E; test: pull-down; Trx-RssB (wild type or mutant) immobilised on Ni-NTA agarose, untagged σS added, in the absence of AcP (Figure 6a,b); conditions: both partners purified
Trx-RssB_(RE/AA) = target: T3, Trx-RssB_(RE/AA); test: pull-down; Trx-RssB (wild type or mutant) immobilised on Ni-NTA agarose, untagged σS added, in the presence of AcP (Figures 6a,b and 8b); conditions: both partners purified
Trx-RssB_(R117A) = target: T4, Trx-RssB_(R117A); test: as above; conditions: both partners purified
Trx-H6-RssB, wild type [2] = target: T1, Trx-H6-RssB, wild type; test: as above; conditions: both partners purified

| Binder | half-life of wild type σS in RssB-mediated turnover by ClpXP with equimolar, 2-fold and 5-fold excess of ΔNσS (from ~2.5 min without) (Trx-H6-RssB, wild type [1]) | apparent Km for the turnover of σS by ClpXP with phosphorylated RssB (RssB~P, with AcP) (Trx-H6-RssB, wild type [1]) | apparent Km for the turnover of σS by ClpXP with unphosphorylated RssB (no AcP) (Trx-H6-RssB, wild type [1]) | binding relative to RssB~P (Trx-RssB D58E) | binding result (Trx-RssB_(RE/AA)) | binding result (Trx-RssB_(R117A)) | fold increase of binding on phosphorylation of RssB (against unphosphorylated RssB) (Trx-H6-RssB, wild type [2]) |
| --- | --- | --- | --- | --- | --- | --- | --- |
| B1 | ~20 min | – | – | – | – | – | – |
| B2 | – | ~0.058 µM | ~0.15 µM | ~75% | binds | binds | ~3 fold |

Source: PMC7226468, “Insight into the RssB-Mediated Recognition and Delivery of σ^s to the AAA+ Protease, ClpXP” (Biomolecules, 2020)
